This is one part of the list.
Target: T1, MBP-FoxP1dN (Mus musculus, UniProt P58462 326-579)
T1 sequence: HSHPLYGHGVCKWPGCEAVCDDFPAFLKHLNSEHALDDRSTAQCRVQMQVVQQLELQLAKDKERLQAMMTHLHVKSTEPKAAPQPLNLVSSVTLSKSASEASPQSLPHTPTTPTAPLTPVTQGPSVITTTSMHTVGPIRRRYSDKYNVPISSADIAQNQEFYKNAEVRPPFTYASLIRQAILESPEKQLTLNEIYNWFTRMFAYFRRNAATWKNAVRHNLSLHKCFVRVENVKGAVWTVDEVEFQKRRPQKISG
Experiment: PD-seq (MBP pull-down with sequencing); 20 mM Tris-HCl pH 7.5, 100 mM NaCl, 1.5 mM MgCl2, 0.4 uM protein, 0.1 uM dsDNA library, 30 min, room temperature, amylose pull-down; high values mean tight binding
Conditions: protein: recombinant; tags: His6-MBP; chain copies: 2; dsDNA, one strand shown
Method in brief: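 A degenerate double-stranded DNA library, filled in with Klenow, was added at 0.1 µM to 0.4 µM His6-MBP-tagged mouse FoxP3 or FoxP1 fragment lacking the N-terminus, expressed in E. coli. Incubation lasted 30 min at room temperature in Tris pH 7.5 buffer with NaCl and MgCl2, after which complexes were collected on amylose resin, washed three times, digested with proteinase K to free the DNA, barcoded by PCR and sequenced by Illumina. Binding is the pooled-replicate reads-per-million enrichment of pull-down over input.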

Sequence	binding signal
GATGATTGTTCTCCCAGCTGATGAATTGGTCCCGTCGAGTAAACAAATTTTCCTAATCTTTCTGTTCAAGCGCCATCTAC	0.865 RPM ratio (pull-down/input)
GATGATTGTTCTCCCAGCTGATGAATTGTTACCATCGAGTAAACAAATTTTCCTAATCTTTCTGTTCAAGCGCCATCTAC	1.31 RPM ratio (pull-down/input)
GATGATTGTTCTCCCAGCTGATGAATTAGTGATATCGAGTAAACAAATTTTCCTAATCTTTCTGTTCAAGCGCCATCTAC	1.1 RPM ratio (pull-down/input)
GATGATTGTTCTCCCAGCTGATGAATTAAAGCGGTCGAGTAAACAAATTTTCCTAATCTTTCTGTTCAAGCGCCATCTAC	0.912 RPM ratio (pull-down/input)
GATGATTGTTCTCCCAGCTGATGAATTTGAATAGTCGAGTAAACAAATTTTCCTAATCTTTCTGTTCAAGCGCCATCTAC	0.867 RPM ratio (pull-down/input)
GATGATTGTTCTCCCAGCTGATGAATTCGGTTTTTCGAGTAAACAAATTTTCCTAATCTTTCTGTTCAAGCGCCATCTAC	0.939 RPM ratio (pull-down/input)
GATGATTGTTCTCCCAGCTGATGAATTGCCCCAATCGAGTAAACAAATTTTCCTAATCTTTCTGTTCAAGCGCCATCTAC	1.01 RPM ratio (pull-down/input)
GATGATTGTTCTCCCAGCTGATGAATTTCTGAGTTCGAGTAAACAAATTTTCCTAATCTTTCTGTTCAAGCGCCATCTAC	0.778 RPM ratio (pull-down/input)
GATGATTGTTCTCCCAGCTGATGAATTCCTGTCGTCGAGTAAACAAATTTTCCTAATCTTTCTGTTCAAGCGCCATCTAC	0.876 RPM ratio (pull-down/input)
GATGATTGTTCTCCCAGCTGATGAATTCAGGAGTTCGAGTAAACAAATTTTCCTAATCTTTCTGTTCAAGCGCCATCTAC	0.809 RPM ratio (pull-down/input)
GATGATTGTTCTCCCAGCTGATGAATTCCCACAATCGAGTAAACAAATTTTCCTAATCTTTCTGTTCAAGCGCCATCTAC	1.21 RPM ratio (pull-down/input)
GATGATTGTTCTCCCAGCTGATGAATTCCGTGGGTCGAGTAAACAAATTTTCCTAATCTTTCTGTTCAAGCGCCATCTAC	0.779 RPM ratio (pull-down/input)
GATGATTGTTCTCCCAGCTGATGAATTCCATTACTCGAGTAAACAAATTTTCCTAATCTTTCTGTTCAAGCGCCATCTAC	0.874 RPM ratio (pull-down/input)
GATGATTGTTCTCCCAGCTGATGAATTACGAACGTCGAGTAAACAAATTTTCCTAATCTTTCTGTTCAAGCGCCATCTAC	1 RPM ratio (pull-down/input)
GATGATTGTTCTCCCAGCTGATGAATTACCCGAATCGAGTAAACAAATTTTCCTAATCTTTCTGTTCAAGCGCCATCTAC	0.916 RPM ratio (pull-down/input)
GATGATTGTTCTCCCAGCTGATGAATTAATCTTGTCGAGTAAACAAATTTTCCTAATCTTTCTGTTCAAGCGCCATCTAC	0.957 RPM ratio (pull-down/input)

Sequence	binding signal
GATGATTGTTCTCCCAGCTGATGAATTTCGCAAATCGAGTAAACAAATTTTCCTAATCTTTCTGTTCAAGCGCCATCTAC	1.08 RPM ratio (pull-down/input)
GATGATTGTTCTCCCAGCTGATGAATTAGATCTATCGAGTAAACAAATTTTCCTAATCTTTCTGTTCAAGCGCCATCTAC	0.973 RPM ratio (pull-down/input)
GATGATTGTTCTCCCAGCTGATGAATTCGAAAACTCGAGTAAACAAATTTTCCTAATCTTTCTGTTCAAGCGCCATCTAC	0.926 RPM ratio (pull-down/input)
GATGATTGTTCTCCCAGCTGATGAATTGTCCCCCTCGAGTAAACAAATTTTCCTAATCTTTCTGTTCAAGCGCCATCTAC	0.974 RPM ratio (pull-down/input)
GATGATTGTTCTCCCAGCTGATGAATTCGATAGCTCGAGTAAACAAATTTTCCTAATCTTTCTGTTCAAGCGCCATCTAC	0.826 RPM ratio (pull-down/input)
GATGATTGTTCTCCCAGCTGATGAATTAGCAGGTTCGAGTAAACAAATTTTCCTAATCTTTCTGTTCAAGCGCCATCTAC	0.803 RPM ratio (pull-down/input)
GATGATTGTTCTCCCAGCTGATGAATTCGTCGCCTCGAGTAAACAAATTTTCCTAATCTTTCTGTTCAAGCGCCATCTAC	0.906 RPM ratio (pull-down/input)
GATGATTGTTCTCCCAGCTGATGAATTTCGCCCCTCGAGTAAACAAATTTTCCTAATCTTTCTGTTCAAGCGCCATCTAC	0.825 RPM ratio (pull-down/input)
GATGATTGTTCTCCCAGCTGATGAATTTGGGCACTCGAGTAAACAAATTTTCCTAATCTTTCTGTTCAAGCGCCATCTAC	0.896 RPM ratio (pull-down/input)
GATGATTGTTCTCCCAGCTGATGAATTGTTGGGTTCGAGTAAACAAATTTTCCTAATCTTTCTGTTCAAGCGCCATCTAC	1.26 RPM ratio (pull-down/input)
GATGATTGTTCTCCCAGCTGATGAATTTGGAGCATCGAGTAAACAAATTTTCCTAATCTTTCTGTTCAAGCGCCATCTAC	1.01 RPM ratio (pull-down/input)
GATGATTGTTCTCCCAGCTGATGAATTTGATAGCTCGAGTAAACAAATTTTCCTAATCTTTCTGTTCAAGCGCCATCTAC	0.868 RPM ratio (pull-down/input)
GATGATTGTTCTCCCAGCTGATGAATTTGCTTGGTCGAGTAAACAAATTTTCCTAATCTTTCTGTTCAAGCGCCATCTAC	1.04 RPM ratio (pull-down/input)
GATGATTGTTCTCCCAGCTGATGAATTGGAGGTATCGAGTAAACAAATTTTCCTAATCTTTCTGTTCAAGCGCCATCTAC	0.922 RPM ratio (pull-down/input)
GATGATTGTTCTCCCAGCTGATGAATTCCACGGCTCGAGTAAACAAATTTTCCTAATCTTTCTGTTCAAGCGCCATCTAC	0.718 RPM ratio (pull-down/input)

— article PMC12820563, “FoxP3 forms a head-to-head dimer in vivo and stabilizes its multimerization on adjacent microsatellites”
